Laboratory results taken from the supplement of paper PMC4466236.
The full ranking holds about 33,000 sequences; the median of “E-score (dimensionless, -0.5 to 0.5)” is about -0.058, and the highest 2% start at about 0.35. The list shows a part of the results.

Tested on: MvaT
Experiment: PBM 8-mer E-score (mean of HK and ME arrays) (E-score (dimensionless, -0.5 to 0.5)); higher = stronger relative binding preference; most listed sequences are background and not binding sites
Summary of the method: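 Full-length P. aeruginosa MvaT, with glutathione S-transferase fused to its N-terminus (cloned into pTH6838 by isothermal assembly), was tested by protein binding microarray using a previously described protocol. Two universal double-stranded 60-mer arrays (ME and HK) were used, each with a constant 25-mer primer region and a variable 35-mer region covering all 8-mers. The rank-based 8-mer E-score (-0.5 to 0.5) is the mean of the two arrays, parsed with a custom Python script.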

Sequence | PBM 8-mer E-score
ATAGCTTA | 0.133
CATGATGC | -0.011
ATGGCTAG | -0.0701
CCGTGCGC | -0.2
AGGAGACC | -0.273
CGTGTGCC | -0.144
GCAGCCCC | -0.208
ATGGCGCG | -0.156
ACCTTACG | -0.123
GGATATTA | 0.332
AGATGCAT | 0.142
CAACTCAG | 0.128
AACCGAGA | -0.147
AGTAATGC | 0.166
CTCCCCAC | -0.296
CACGCGGG | -0.257
CGAGGCTC | -0.144
CTAGCGGA | -0.0407
GTAAACCA | 0.151
ATTCGTAG | 0.0187
ATTTTCAG | 0.142
TCGACAAA | 0.123
GCTAGCCC | -0.143
ATCCTCTA | 0.0674
GGTAAGAA | 0.131

Sequence | PBM 8-mer E-score
TACGTACA | 0.0981
AAGTCAGG | 0.0458
ACTTGCGG | 0.0733
ACCAGCTG | -0.119
AAGATAGA | 0.0659
CAGGTATA | 0.101
CATATCAA | 0.174
GGCCCCAA | -0.195
CGCTAGGC | -0.268
AGCCGAAT | -0.149
AACGCTGG | -0.0857
ACGTATTC | 0.118
AGGTACGC | -0.211
CCTTATCG | -0.112
GCTTCGCC | -0.274
CTTTTGCA | -0.04
CACCCAAA | 0.0556
ACCAATAA | 0.302
CTGCGTAA | -0.0347
CCATAGGA | -0.168
TCCAGGAA | 0.00133
AAATTCAG | 0.207
GTGCAAAA | -0.0129
AGTCAGCG | -0.00964
GAACCACC | -0.171

Sequence | PBM 8-mer E-score
ATCCAGAG | -0.138
GTCGGAGA | -0.273
ACTGCTGC | -0.128
TCCCCTAA | -0.157
TCGCAAGA | 0.0435
CTTGACGC | -0.229
ATTGAGCA | 0.0361
AAGCTGTA | -0.0137
GTACAAGA | 0.038
AGCTGTTA | -0.0546
AGAACCCT | -0.274
CAAATAGA | 0.264
CTCCTAGA | -0.155
AAAATGAC | 0.0284
ACCCTCGA | -0.218
CGGAGGGC | -0.389
ACATTAAT | 0.382
CTTCAATC | -0.138
TCCGACGA | -0.00942
CAATTCCC | 0.0755
CATTGCAC | 0.0744
TGCGTCAA | -0.0324
AACCTAGC | -0.191
CCGTTGGA | -0.208
AGAGAGAG | -0.0553

Sequence | PBM 8-mer E-score
GATTGTCA | -0.0327
ATAACCCA | 0.273
CAGACTAG | -0.115
CCATCGAA | -0.0707
CACCAGTG | -0.129
ACGGCTGC | -0.128
CTCAGGAG | -0.245
ATAATCGA | 0.3
CAGTTGGG | -0.121
AGAGTGGG | -0.249
ACTTCCGC | 0.0342
CAGTTCCC | -0.269
CGCTGGAC | -0.195
AGTTTCAC | 0.104
ACGCATAC | 0.067
ACCGTCGC | -0.272
ACCTGTGG | -0.138
CTATTGCA | -0.00129
ACATGACT | -0.00631
CGCAGTCA | -0.176
AGGAAAAC | 0.0423
CTCACTGC | -0.115
ATGGCAGC | -0.0884
CATGTAGG | -0.032
ATGGATAA | 0.27

Sequence | PBM 8-mer E-score
AGGGAATC | -0.177
ATAACGAT | 0.237
GACTATTA | 0.305
TTTAAAAA | 0.363
AAATACTG | 0.244
ACTGCGCG | -0.174
AGGGAAGA | -0.201
AGCCGTCG | -0.29
CATACGGG | -0.159
CAAGTATA | 0.373
CACGGAGG | -0.283
AGAGCCGA | -0.159
AGCTTTCC | -0.2
ATCCGAAC | 0.0505
CTAGTACA | 0.0584
GGCTATTA | 0.0259
AGGTGAGA | -0.13
CGTACCAA | -0.0836
CTCTGTGA | -0.119
AAACAGCG | 0.02
GTGGACGA | -0.223
ACCACGAA | 0.0524
ACGTGATG | -0.114
CCATACCC | -0.297
CGGAGACA | 0.0514

Sequence | PBM 8-mer E-score
CTGTGGGC | -0.231
GGCACCGA | -0.268
CTGGGAGC | -0.284
AGGAGGGC | -0.283
CCATTCCA | -0.0993
GCGAAATA | 0.224
AACGCGTC | -0.116
AAAACATC | 0.109
CAACAGAG | -0.0794
CGCGGTGA | -0.142
GAAGCAAC | -0.0872
AATCGCGC | 0.0207
AAAATTCG | 0.227
ACCCTTAT | 0.226
CCCCCGGA | -0.286
CATAACGC | 0.0755
CATAGCGC | -0.167
GAACTTCC | -0.0433
AGATATCA | 0.194
TGGTATAA | 0.326
CGTTTGAG | -0.0747
CCACACGA | -0.0134
AAACGAAA | 0.199
AAGCTCAG | -0.164
TAAGCTCA | 0.0524

Sequence | PBM 8-mer E-score
GATGTGAA | 0.00288
AACGCGTT | 0.0635
GTTCCCCA | -0.038
TAGGAACA | -0.0111
GATATACC | 0.178
AAACTTCC | 0.136
AGTGTGTA | 0.144
GAGTTATC | 0.0914
CACCTTTA | 0.145
ATACCTAG | 0.115
AAGAGGAG | -0.158
GATAGTGC | 0.165
ACTAATGG | 0.191
CGGCGCCA | -0.12
ACGCCCCG | -0.272
CCTGACAC | -0.0828
CAGAGCCG | -0.328
GATTCAAA | 0.125
CATCCCAC | -0.161
AACAAGCT | -0.0831
GTTTGGGA | 0.222
CCACCCGC | -0.232
ACACCACT | 0.0056
AATGTCCA | 0.00458
CAAATTCA | 0.174

Sequence | PBM 8-mer E-score
GATTTACC | 0.113
ATGGCAAT | 0.137
CTAGCTAC | -0.157
GACCGGGA | -0.204
GTAATTGA | 0.264
AGTCCGAG | -0.29
ACAACCAT | 0.00184
AGCTCACC | -0.255
CCACTGAG | -0.11
GATCCAAA | -0.108
TACTACTA | 0.181
AGCACTGG | -0.17
CGCGATTC | -0.0253
AGATCACC | -0.118
ACCGCATC | -0.114
CGAATCAG | -0.121
ACACTCGT | -0.0141
CTCATCTA | 0.0114
TACCGGGA | -0.00065
AGTACAGA | 0.0485
AACATTAA | 0.397
CAAACAGG | -0.0105
CAGCGGGC | -0.334
CTCGAAAC | -0.0552
AATACAAG | 0.208

Sequence | PBM 8-mer E-score
CAGCTCCA | -0.159
CCGCCCCC | -0.391
GCTTCATA | -0.0831
AAGCAAAA | 0.128
CACACGGG | -0.187
GCGATAGC | -0.262
TAGAGAAA | 0.0338
CTAATTTC | 0.0429
CAAATACA | 0.229
CTGTGGGA | -0.18
CCGAGGGA | -0.185
CGGGCCCC | -0.255
GGTGACAC | -0.162
AGGCGCCA | -0.201
CAGATTCG | 0.0215
CCAGACCC | -0.274
ACCAGATG | -0.189
TCGCACGA | -0.0516
GGGACTCA | -0.218
TCAAGACA | -0.103
AGTTTGGC | 0.0422
AATAAAAG | 0.309
CCAAGTCA | -0.0101
CCTGCTCC | -0.302
AATCATGA | 0.205

Sequence | PBM 8-mer E-score
AAAAACTT | 0.234
CGAGCAGA | -0.27
CGAGAAAG | -0.187
AAGTTTGC | 0.199
ATCATGGA | -0.06
GCCGCGGC | -0.0684
AACGCACA | 0.104
CATAGCGG | -0.166
ATTTCCTC | 0.0702
AACTCGTA | 0.22
CGCTCTGC | -0.244
AAGAAGTC | 0.0453
ATTTTTCA | 0.145
AGAAGAGA | -0.073
ATGCTTGG | -0.132
CTACGAGA | -0.0941
ATCGATCC | 0.02
CATGCGCG | -0.224
TAACCGCA | 0.163
CGATCAAA | 0.0625
AGGAATTA | 0.226
CCTCCCCG | -0.317
CAGTTTCG | 0.0668
CTTCTGTA | 0.0958
GGGTTAAA | 0.221

Sequence | PBM 8-mer E-score
AATGGAGC | -0.0684
GGTCCGAC | -0.163
AACTTCCC | 0.065
GCGACCGA | -0.173
AGATGAGA | 0.0308
AATCTAAA | 0.263
CTGATATC | 0.0923
AACGATGG | 0.0077
ACAGAACT | 0.136
ACCCTGAT | -0.12
ACACAGTA | 0.0817
ATTTGACC | -0.0256
AAGTCTAG | -0.132
ACCATGAC | -0.124
GCGGAAAA | 0.161
GCAAGGAC | 0.0233
GCACCTGA | -0.165
AAGACAAC | 0.0417
CAGAGAGG | -0.235
GGAGTGAC | -0.185
CCTTCTCG | -0.235
GTGCACGA | -0.072
ATGATATG | 0.199
CACCGCTC | -0.138
GTCGAACA | -0.0589

Sequence | PBM 8-mer E-score
ACTTTGAA | 0.163
CAGTAGTC | -0.116
ACTTAGCG | 0.0909
AGGCAAAC | -0.122
ATCACCAC | -0.0324
ATAAGGGC | 0.0188
GTCTCCCA | -0.167
ATTTGATG | 0.0779
ACGCTCTG | -0.221
CCACCATA | 0.0561
ACATTCAC | 0.139
ACGTTAAC | 0.232
CGAAGATA | 0.134
CCTGCGCG | -0.165
CCGCCTCA | -0.183
AGAAGGGG | -0.234
CATCCTTA | 0.0793
GAAATCTC | -0.0666
GGCCGTCA | -0.173
ATTGACTA | 0.0534
CCAGGGAG | -0.283
CTCTTGGA | -0.282
CTGTTCCA | -0.0683
AAGCAGGC | -0.181
TCTGCACA | -0.0844

Sequence | PBM 8-mer E-score
GACTGTTA | 0.0473
CCGAGTTA | 0.0262
ATCATCCG | -0.0986
TCGGCACA | -0.0747
ACCCGGCT | -0.145
GACGGCCC | -0.128
AGGAGTCC | -0.147
ATGGGTGC | -0.0271
CTTCGTGA | -0.0646
CTGCACAA | 0.00355
CAACCGAC | 0.021
AGCACACA | -0.0533
AGGATCTC | -0.253
AAACACTC | 0.0972
CTTAGATC | -0.0588
CTGAACAA | -0.00661
CGAAATCG | 0.0631
GATGGTCA | -0.203
AAATCAGG | 0.0541
CCAGAGGA | -0.226
ACACGAGG | -0.0897
CCGAACGC | -0.072
AAGGGTAA | 0.109
GAATGGAA | -0.055
GGATCGGA | -0.242

Sequence | PBM 8-mer E-score
CCTCCGAG | -0.338
TGCAAGAA | 0.115
GGAGCTGA | -0.335
ACTGCTCC | -0.0607
AGTCGGGC | -0.148
AAGTCACC | -0.149
CTAAGCTA | 0.0924
AACGCGTG | -0.0417
CTTCCTCC | -0.298
AGGTTCAG | -0.158
CTTAAAAA | 0.163
ACGTCGGA | 0.0335
ACAGCTGA | -0.0814
AGAATTAT | 0.315
ACCAACCC | -0.163
CGCGCCGC | -0.183
CATGGACG | -0.283
CTGTGCCA | -0.201
CGCTCCCG | -0.276
